Results reported in the supplement of paper PMC4967469.

Legend:
Assay in all cases: Viability of human cancer cell lines after 72 h of drug (GDSC screen)
LFM-A13 = compound: C/C(O)=C(\C#N)C(=O)Nc1cc(Br)ccc1Br [LFM-A13]; conditions: top dose 16 µM; top dose inferred
Description: (§1)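 Human cancer cell lines in 384-well plates, medium with 10% serum, drug for 72 h over a 256-fold dose range (nine 2-fold or five 4-fold steps up to the top dose). Adherent lines were fixed and stained with the nucleic acid dye Syto60, suspension lines read with resazurin; signal relative to control wells, capped at 0 and 100%. One two-parameter sigmoid per drug and line, fitted in a mixed model over all curves with the slope shared within a line.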

T0901317 = compound: O=S(=O)(c1ccccc1)N(CC(F)(F)F)c1ccc(C(O)(C(F)(F)F)C(F)(F)F)cc1 [T0901317]; conditions: top dose 10.24 µM; top dose inferred
Description: as §1

Nilotinib = compound: Cc1cn(-c2cc(NC(=O)c3ccc(C)c(Nc4nccc(-c5cccnc5)n4)c3)cc(C(F)(F)F)c2)cn1 [Nilotinib]; conditions: top dose 2 µM
Description: as §1

AUY922 = compound: CCNC(=O)c1noc(-c2cc(C(C)C)c(O)cc2O)c1-c1ccc(CN2CCOCC2)cc1 [AUY922]; conditions: top dose 0.256 µM; top dose inferred
Description: as §1

TW-37 = compound: CC(C)c1ccccc1Cc1cc(C(=O)Nc2ccc(S(=O)(=O)c3ccccc3C(C)(C)C)cc2)c(O)c(O)c1O [TW-37]; conditions: top dose 5 µM
Description: as §1

KIN001-270 = compound: Cc1ccc(Nc2cc(-c3cccc(N4C(=O)c5ccccc5C4=O)c3)ncn2)cc1NS(C)(=O)=O [KIN001-270]; conditions: top dose 20 µM; top dose inferred
Description: as §1

Gemcitabine = compound: Nc1ccn([C@@H]2O[C@H](CO)[C@@H](O)C2(F)F)c(=O)n1 [Gemcitabine]; conditions: top dose 1.024 µM
Description: as §1

MP470 = compound: S=C(NCc1ccc2c(c1)OCO2)N1CCN(c2ncnc3c2oc2ccccc23)CC1 [MP470]; conditions: top dose 20 µM; top dose inferred
Description: as §1

Bicalutamide = compound: CC(O)(CS(=O)(=O)c1ccc(F)cc1)C(=O)Nc1ccc(C#N)c(C(F)(F)F)c1 [Bicalutamide]; conditions: top dose inferred
Description: as §1

GNF-2 = compound: NC(=O)c1cccc(-c2cc(Nc3ccc(OC(F)(F)F)cc3)ncn2)c1 [GNF-2]; conditions: top dose 1.28 µM; top dose inferred
Description: as §1

[1] = top dose 1.024 µM, screen: GDSC drug entry 150
[2] = top dose 10 µM, screen: GDSC drug entry 1502

Cell Line	AUC (LFM-A13)	pIC50 (LFM-A13)	AUC (T0901317)	pIC50 (T0901317)	AUC (Nilotinib)	pIC50 (Nilotinib)	AUC (AUY922)	pIC50 (AUY922)	AUC (TW-37)	pIC50 (TW-37)	AUC (KIN001-270)	pIC50 (KIN001-270)	AUC (Gemcitabine)	pIC50 (Gemcitabine)	AUC (MP470)	pIC50 (MP470)	AUC (Bicalutamide; [1])	pIC50 (Bicalutamide; [1])	AUC (Bicalutamide; [2])	pIC50 (Bicalutamide; [2])	AUC (GNF-2)	pIC50 (GNF-2)
DMS-114 (small cell lung carcinoma, adherent)	0.984	< 4.80	0.974	< 4.99	0.985	< 5.70	0.896	< 6.59	0.339	6.98	0.971	< 4.70	0.977	< 5.99	0.896	< 4.70	0.982	< 5.99	0.96	< 5.00	0.985	< 5.89
Farage (B-cell lymphoma, suspension)	0.984	< 4.80	0.983	< 4.99	0.972	< 5.70	0.531	7.72	0.516	6.46	0.875	4.86	0.129	8.22	0.845	4.97	0.993	< 5.99	0.99	< 5.00	0.992	< 5.89
SW962 (urogenital system, adherent)	0.952	< 4.80	0.982	< 4.99	0.982	< 5.70	0.465	7.90	0.51	6.47	0.948	< 4.70	0.322	7.74	0.975	< 4.70	0.975	< 5.99	0.943	< 5.00	0.963	< 5.89
NCI-H64 (small cell lung carcinoma, suspension)	0.988	< 4.80	0.975	< 4.99	0.987	< 5.70	0.572	7.62	0.684	6.06	0.993	< 4.70	0.734	6.62	0.281	6.44	0.995	< 5.99	–	–	0.996	< 5.89
LAMA-84 (chronic myeloid leukaemia, suspension)	0.973	< 4.80	0.944	< 4.99	0.038	> 8.11	0.627	7.44	0.489	6.54	0.971	< 4.70	0.445	7.34	0.837	4.86	0.985	< 5.99	0.964	< 5.00	0.586	6.86
NCI-H720 (lung carcinoid, suspension)	0.992	< 4.80	0.978	< 4.99	0.985	< 5.70	0.967	< 6.59	0.538	6.41	0.987	< 4.70	0.986	< 5.99	0.981	< 4.70	0.992	< 5.99	0.988	< 5.00	0.946	< 5.89
NCI-H345 (small cell lung carcinoma, suspension)	0.99	< 4.80	0.99	< 4.99	0.99	< 5.70	0.988	< 6.59	0.758	5.74	0.982	< 4.70	0.99	< 5.99	0.892	< 4.70	0.99	< 5.99	0.987	< 5.00	0.973	< 5.89
CTB-1 (B-cell lymphoma, suspension)	0.97	< 4.80	0.779	5.23	0.945	< 5.70	0.627	7.39	0.474	6.59	0.979	< 4.70	0.445	7.37	0.445	6.08	0.967	< 5.99	0.947	< 5.00	0.978	< 5.89
BE-13 (lymphoblastic leukaemia, suspension)	0.982	< 4.80	0.951	< 4.99	0.77	6.15	0.608	7.51	0.608	6.22	0.944	< 4.70	0.237	7.93	0.932	< 4.70	0.987	< 5.99	0.971	< 5.00	0.948	< 5.89
LS-513 (large intestine, adherent)	0.985	< 4.80	0.977	< 4.99	0.982	< 5.70	0.689	7.26	0.623	6.16	0.98	< 4.70	0.803	6.27	0.96	< 4.70	0.985	< 5.99	0.984	< 5.00	0.983	< 5.89
SUP-T1 (T-cell lymphoblastic leukaemia, suspension)	0.973	< 4.80	0.953	< 4.99	0.988	< 5.70	0.627	7.46	0.743	5.84	0.965	< 4.70	0.246	7.89	0.938	< 4.70	0.99	< 5.99	0.983	< 5.00	0.963	< 5.89
ME-1 (acute myeloid leukaemia, suspension)	0.953	< 4.80	0.989	< 4.99	0.967	< 5.70	0.849	6.67	0.92	< 5.30	0.989	< 4.70	0.894	< 5.99	0.989	< 4.70	0.988	< 5.99	0.987	< 5.00	0.989	< 5.89
MEG-01 (chronic myeloid leukaemia, suspension)	0.98	< 4.80	0.954	< 4.99	0.083	> 8.11	0.586	7.57	0.39	6.80	0.975	< 4.70	0.19	8.09	0.923	< 4.70	0.986	< 5.99	0.984	< 5.00	0.783	6.29
PF-382 (T-cell lymphoblastic leukaemia, suspension)	0.979	< 4.80	0.938	< 4.99	0.991	< 5.70	0.559	7.64	0.669	6.06	0.955	< 4.70	0.338	7.62	0.968	< 4.70	0.985	< 5.99	0.99	< 5.00	0.991	< 5.89
DSH1 (bladder, adherent)	0.946	< 4.80	0.987	< 4.99	0.944	< 5.70	0.647	7.40	0.616	6.19	0.989	< 4.70	0.582	6.97	0.939	< 4.70	0.989	< 5.99	0.988	< 5.00	0.989	< 5.89
DMS-79 (small cell lung carcinoma, suspension)	0.984	< 4.80	0.987	< 4.99	0.987	< 5.70	0.936	< 6.59	0.711	5.86	0.965	< 4.70	0.907	< 5.99	0.915	< 4.70	0.987	< 5.99	0.977	< 5.00	0.967	< 5.89
A3-KAW (B-cell lymphoma, suspension)	0.956	< 4.80	0.862	5.22	0.993	< 5.70	0.594	7.56	0.518	6.46	0.606	5.64	0.128	8.20	0.117	6.95	0.993	< 5.99	0.97	< 5.00	0.986	< 5.89
RKO (large intestine, adherent)	0.988	< 4.80	0.985	< 4.99	0.951	< 5.70	0.396	8.07	0.264	7.15	0.953	< 4.70	0.073	> 8.40	0.842	4.90	0.988	< 5.99	0.984	< 5.00	0.988	< 5.89
DJM-1 (skin, adherent)	0.949	< 4.80	0.97	< 4.99	0.97	< 5.70	0.562	7.63	0.612	6.20	0.958	< 4.70	0.352	7.60	0.918	< 4.70	0.988	< 5.99	0.986	< 5.00	0.988	< 5.89
AMO-1 (haematopoietic neoplasm, suspension)	0.948	< 4.80	0.969	< 4.99	0.991	< 5.70	0.535	7.71	0.665	6.08	0.931	< 4.70	0.763	6.49	0.848	4.93	0.987	< 5.99	0.982	< 5.00	0.988	< 5.89
MOLM-13 (acute myeloid leukaemia, suspension)	0.98	< 4.80	0.848	5.16	0.978	< 5.70	0.505	7.78	0.63	6.16	0.94	< 4.70	0.356	7.58	0.665	5.46	0.985	< 5.99	0.978	< 5.00	0.984	< 5.89
OCI-AML5 (acute myeloid leukaemia, suspension)	0.953	< 4.80	0.918	< 4.99	0.975	< 5.70	0.462	7.90	0.623	6.18	0.948	< 4.70	0.237	7.92	0.89	4.71	0.988	< 5.99	0.987	< 5.00	0.964	< 5.89
EW-13 (Ewing sarcoma, suspension)	0.886	< 4.80	0.945	< 4.99	0.909	< 5.70	0.513	7.76	0.864	< 5.30	0.909	< 4.70	0.046	> 8.40	0.895	< 4.70	0.984	< 5.99	0.984	< 5.00	0.981	< 5.89

pIC50: −log10 of the molar value. A lower IC50 marks a more sensitive line; where the fit passes the top or lowest dose, that dose stands as a limit. AUC sums up the same curve from the lowest dose to the 256-fold higher top dose: 1 means no effect, lower means more sensitive. For part of these data: A top dose marked as inferred is not printed in the source and was worked back from the curve model. For part of these data: Where an entry number is given, a second screen of the drug exists; the two often differ.
